Source: the supplement of paper PMC10126150
Sequences with one replicate were seen in a single cluster, so their values are uncertain.

system: ATP; test: switch fluorescence ratio, 500 uM ATP over buffer (Cy3 cluster intensity, sum of 5 cycles each) (fold (ratio)); higher = stronger signal-on switching upon ATP binding; settings: aptamer strand: ATP DNA aptamer (quencher-CACCTGGGGGAGTATTGCGGAGGAAGG + anchor), 100 nM annealed; ATP concentration: 500 uM; one replicate
Procedure, shortened: (§1)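 Clusters with intensities outside 100-1000 RFU were excluded. The remaining Cy3-labelled switching-strand clusters on a modified Illumina MiSeq flow-cell had been annealed to 100 nM quencher-labelled ATP aptamer and imaged in selection buffer, then after 15 min with 500 uM ATP at 22 °C, for five cycles separated by NaOH stripping and re-annealing. The fluorescence ratio, averaged per switch-domain sequence, is each cluster's summed target-cycle Cy3 intensity over its summed buffer-cycle Cy3 intensity.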
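Also: ATP exposure 15 min at 22 °C before imaging.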

**Q.** How did the switch fluorescence ratio turn out when “TCGTCGGCAGCGTCAGATGTGTATAAGAGACAGTTTTTTTTTTTTTTTTTTTTTTTTTTATC” was run?
**A.** 1.01

system: ATP; test: switch fluorescence ratio, 500 uM ATP over buffer (Cy3 cluster intensity, sum of 5 cycles each) (fold (ratio)); higher = stronger signal-on switching upon ATP binding; sequences stand for … in TCGTCGGCAGCGTCAGATGTGTATAAGAGACAGTTTTTTTTTTTTTTTTTTTTTTTTT…TC; settings: aptamer strand: ATP DNA aptamer (quencher-CACCTGGGGGAGTATTGCGGAGGAAGG + anchor), 100 nM annealed; ATP concentration: 500 uM; one replicate
Procedure, shortened: as §1

**Q.** How did the switch fluorescence ratio turn out when CGCTAAAAAG was run?
**A.** 1.07

**Q.** For AATTAATGTT, which switch fluorescence ratio is on record?
**A.** 0.998

**Q.** For CCGTCGGTTT, which switch fluorescence ratio is on record?
**A.** 1.05

**Q.** CGGAAATTTA was tested. Which switch fluorescence ratio did it give?
**A.** 1.02

**Q.** TCAATACGGT was tested. Which switch fluorescence ratio did it give?
**A.** 1.21

**Q.** For CACGCGCGCA, which switch fluorescence ratio is on record?
**A.** 1.05

**Q.** For GTGATTCACA, which switch fluorescence ratio is on record?
**A.** 1.01

**Q.** Which switch fluorescence ratio does the source give for ATGTAGGGAC here?
**A.** 1.04

**Q.** Which switch fluorescence ratio does the source give for CGCCTAAACA here?
**A.** 1.03

**Q.** How did the switch fluorescence ratio turn out when GGTTAAACCA was run?
**A.** 0.995

**Q.** With CAAAGCACGG as the sequence, how does the switch fluorescence ratio read?
**A.** 1.14

**Q.** How did the switch fluorescence ratio turn out when CACATGAGGG was run?
**A.** 0.999

**Q.** For GGATGTGGCG, which switch fluorescence ratio is on record?
**A.** 1.04

**Q.** For TACGCTCATG, which switch fluorescence ratio is on record?
**A.** 1

**Q.** For TTGGCATGAC, which switch fluorescence ratio is on record?
**A.** 1.07

**Q.** How did the switch fluorescence ratio turn out when AAGGCGAGTT was run?
**A.** 1.01

**Q.** Which switch fluorescence ratio does the source give for AGGAGACA here?
**A.** 1.01

**Q.** How did the switch fluorescence ratio turn out when AAACAGTCGT was run?
**A.** 0.964

**Q.** For AGAAGTGCGT, which switch fluorescence ratio is on record?
**A.** 1.04

**Q.** How did the switch fluorescence ratio turn out when CCCATTATTT was run?
**A.** 0.957

**Q.** With TCCTAACTCT as the sequence, how does the switch fluorescence ratio read?
**A.** 1.07

**Q.** AAAATGTTTA was tested. Which switch fluorescence ratio did it give?
**A.** 1.07

**Q.** With AGAGAGATTG as the sequence, how does the switch fluorescence ratio read?
**A.** 0.95

**Q.** Which switch fluorescence ratio does the source give for CTTTGACGTC here?
**A.** 1.02

**Q.** GCACAAGCAA was tested. Which switch fluorescence ratio did it give?
**A.** 1.01

**Q.** For CTATCGAGGG, which switch fluorescence ratio is on record?
**A.** 0.952

**Q.** For CATTATAGTA, which switch fluorescence ratio is on record?
**A.** 0.985

**Q.** With CTGATGCTGG as the sequence, how does the switch fluorescence ratio read?
**A.** 1.01

**Q.** How did the switch fluorescence ratio turn out when ATTTACCTAG was run?
**A.** 1.01

**Q.** How did the switch fluorescence ratio turn out when TGTATTGAAA was run?
**A.** 0.961

**Q.** Which switch fluorescence ratio does the source give for GGCTAAGATT here?
**A.** 0.994

**Q.** For CCCGGCGGCG, which switch fluorescence ratio is on record?
**A.** 1.01

**Q.** TATGCCAGTT was tested. Which switch fluorescence ratio did it give?
**A.** 0.938

**Q.** Which switch fluorescence ratio does the source give for GTCGCCTAGG here?
**A.** 1.13

**Q.** For GTAATGTATT, which switch fluorescence ratio is on record?
**A.** 1.03

**Q.** With TGCTACCACG as the sequence, how does the switch fluorescence ratio read?
**A.** 1.05

**Q.** TGTGGGATGC was tested. Which switch fluorescence ratio did it give?
**A.** 0.991

**Q.** How did the switch fluorescence ratio turn out when TGGGCGTTTT was run?
**A.** 1.03

**Q.** For TCACAAGAGG, which switch fluorescence ratio is on record?
**A.** 1

**Q.** With CGTAGTAGAA as the sequence, how does the switch fluorescence ratio read?
**A.** 1.05

**Q.** TTTATATGAT was tested. Which switch fluorescence ratio did it give?
**A.** 0.996

**Q.** GAATACCAAT was tested. Which switch fluorescence ratio did it give?
**A.** 0.973

**Q.** With TGAGTGCTGA as the sequence, how does the switch fluorescence ratio read?
**A.** 0.967

**Q.** For GGTTTCCTAA, which switch fluorescence ratio is on record?
**A.** 0.986

**Q.** How did the switch fluorescence ratio turn out when AACACAGTGC was run?
**A.** 1.06

**Q.** With AGTATTAACG as the sequence, how does the switch fluorescence ratio read?
**A.** 1.02

**Q.** Which switch fluorescence ratio does the source give for GAGAAGCTTA here?
**A.** 0.997

**Q.** How did the switch fluorescence ratio turn out when CACCTTTTTG was run?
**A.** 0.999

**Q.** TACTCGGAAT was tested. Which switch fluorescence ratio did it give?
**A.** 1.2

**Q.** TAAGATGGTT was tested. Which switch fluorescence ratio did it give?
**A.** 0.985

**Q.** How did the switch fluorescence ratio turn out when AGAGTGTCAT was run?
**A.** 1.03

**Q.** How did the switch fluorescence ratio turn out when CCAGATGGGT was run?
**A.** 1.01

**Q.** For CTTGGGTGA, which switch fluorescence ratio is on record?
**A.** 1.03

**Q.** How did the switch fluorescence ratio turn out when TAAACGTCGG was run?
**A.** 0.991

**Q.** For AAAGGCAACA, which switch fluorescence ratio is on record?
**A.** 0.996

**Q.** For CAGTGGGATC, which switch fluorescence ratio is on record?
**A.** 0.994

**Q.** With GCTCTGGCTC as the sequence, how does the switch fluorescence ratio read?
**A.** 1.04

**Q.** Which switch fluorescence ratio does the source give for AACGAAGCCA here?
**A.** 1.23

**Q.** For GTGTCCGGAG, which switch fluorescence ratio is on record?
**A.** 1.08

**Q.** Which switch fluorescence ratio does the source give for CTCCCGGGCC here?
**A.** 1.21

**Q.** With GGGTATATAT as the sequence, how does the switch fluorescence ratio read?
**A.** 1.02

**Q.** How did the switch fluorescence ratio turn out when ATTGTTCACC was run?
**A.** 0.975

**Q.** How did the switch fluorescence ratio turn out when CTATTAGCGT was run?
**A.** 0.938

**Q.** For AGCGAATTGG, which switch fluorescence ratio is on record?
**A.** 1.02

**Q.** Which switch fluorescence ratio does the source give for CGTTAATG here?
**A.** 1.01

**Q.** CACTTAAACA was tested. Which switch fluorescence ratio did it give?
**A.** 1.04

**Q.** GGCTCTCTGT was tested. Which switch fluorescence ratio did it give?
**A.** 0.988

**Q.** How did the switch fluorescence ratio turn out when ATTGCGCTCA was run?
**A.** 0.97

**Q.** TATCATACGG was tested. Which switch fluorescence ratio did it give?
**A.** 1.02

**Q.** For GTAACATGTT, which switch fluorescence ratio is on record?
**A.** 0.983

**Q.** How did the switch fluorescence ratio turn out when TGCTGGCACG was run?
**A.** 0.986

**Q.** TGAAAAGTAT was tested. Which switch fluorescence ratio did it give?
**A.** 1.18

**Q.** How did the switch fluorescence ratio turn out when ACAGAGGACA was run?
**A.** 0.984

**Q.** For TGTCGGGGTG, which switch fluorescence ratio is on record?
**A.** 0.973

**Q.** TCGCTACT was tested. Which switch fluorescence ratio did it give?
**A.** 1.81

**Q.** GGTTATGA was tested. Which switch fluorescence ratio did it give?
**A.** 0.977

**Q.** TGAGAAAAGA was tested. Which switch fluorescence ratio did it give?
**A.** 0.995

**Q.** With ATAAGTTATA as the sequence, how does the switch fluorescence ratio read?
**A.** 0.979

**Q.** For AAACCCATGG, which switch fluorescence ratio is on record?
**A.** 1.02

**Q.** For CTTAAGGTAA, which switch fluorescence ratio is on record?
**A.** 1.01

**Q.** TCAACCGGAT was tested. Which switch fluorescence ratio did it give?
**A.** 1.03

**Q.** With TCGTGGACA as the sequence, how does the switch fluorescence ratio read?
**A.** 1.02

**Q.** Which switch fluorescence ratio does the source give for AAGCATCGAG here?
**A.** 1.01

**Q.** For TATTTACCCG, which switch fluorescence ratio is on record?
**A.** 1.01

**Q.** For GAGCTCAGAG, which switch fluorescence ratio is on record?
**A.** 0.973

**Q.** For CTTAGGGGTT, which switch fluorescence ratio is on record?
**A.** 0.992

**Q.** Which switch fluorescence ratio does the source give for CCTGTCGTCG here?
**A.** 1.01

**Q.** For ACATCTACGG, which switch fluorescence ratio is on record?
**A.** 1.23

**Q.** AAGATAACAC was tested. Which switch fluorescence ratio did it give?
**A.** 1.03

**Q.** How did the switch fluorescence ratio turn out when AAAAACATCG was run?
**A.** 1.03

**Q.** CCGGGGCCGG was tested. Which switch fluorescence ratio did it give?
**A.** 1.01

**Q.** With CGGCCGTAGC as the sequence, how does the switch fluorescence ratio read?
**A.** 1.12

**Q.** For TAAGCCGGTT, which switch fluorescence ratio is on record?
**A.** 0.963

**Q.** With TTTATATGCC as the sequence, how does the switch fluorescence ratio read?
**A.** 0.993

**Q.** For TGCCCTGTGC, which switch fluorescence ratio is on record?
**A.** 0.976

**Q.** With GAGGGTCTGA as the sequence, how does the switch fluorescence ratio read?
**A.** 0.989

**Q.** How did the switch fluorescence ratio turn out when GAGGTCAAC was run?
**A.** 0.954

**Q.** GCTTTACGTC was tested. Which switch fluorescence ratio did it give?
**A.** 1.02

**Q.** How did the switch fluorescence ratio turn out when CCCCTCCCCG was run?
**A.** 1.65

**Q.** Which switch fluorescence ratio does the source give for CGATATAGGG here?
**A.** 0.978

**Q.** For ACCTTAAAC, which switch fluorescence ratio is on record?
**A.** 1.09

**Q.** With GTTTGAGGAC as the sequence, how does the switch fluorescence ratio read?
**A.** 0.959

**Q.** How did the switch fluorescence ratio turn out when AATGAGCTAC was run?
**A.** 1.22

**Q.** How did the switch fluorescence ratio turn out when GGGTATCCAG was run?
**A.** 0.985

**Q.** For CGTGCGGAGC, which switch fluorescence ratio is on record?
**A.** 1.03

**Q.** With GGGACGGAGG as the sequence, how does the switch fluorescence ratio read?
**A.** 0.94

**Q.** Which switch fluorescence ratio does the source give for GACTGACTT here?
**A.** 1.13

**Q.** With GCCTAGGGTC as the sequence, how does the switch fluorescence ratio read?
**A.** 0.975

**Q.** GGTGTTATTT was tested. Which switch fluorescence ratio did it give?
**A.** 0.991

**Q.** For TCTTTAATA, which switch fluorescence ratio is on record?
**A.** 0.983

**Q.** How did the switch fluorescence ratio turn out when TATCTTACTA was run?
**A.** 0.999

**Q.** For CATTGGGAGC, which switch fluorescence ratio is on record?
**A.** 1.03

**Q.** With CGAAGCTGG as the sequence, how does the switch fluorescence ratio read?
**A.** 1.27

**Q.** Which switch fluorescence ratio does the source give for ACCCCTTCAC here?
**A.** 1.3

**Q.** How did the switch fluorescence ratio turn out when GTTTAAAATA was run?
**A.** 1.02

**Q.** How did the switch fluorescence ratio turn out when AGAGTCTACA was run?
**A.** 1.04

**Q.** How did the switch fluorescence ratio turn out when CGCTAGCCAT was run?
**A.** 1.03

**Q.** AATGTAGCAA was tested. Which switch fluorescence ratio did it give?
**A.** 2.82

**Q.** Which switch fluorescence ratio does the source give for TATAGAGTTA here?
**A.** 1

**Q.** For CTGCTCGCAC, which switch fluorescence ratio is on record?
**A.** 4.19

**Q.** How did the switch fluorescence ratio turn out when TGTCGCTTCG was run?
**A.** 1

**Q.** Which switch fluorescence ratio does the source give for GACGGGGTCG here?
**A.** 1.01

**Q.** With GAGCTGGATT as the sequence, how does the switch fluorescence ratio read?
**A.** 0.999

**Q.** Which switch fluorescence ratio does the source give for AAAAGGGATA here?
**A.** 0.946

**Q.** For ACGCGCAGAT, which switch fluorescence ratio is on record?
**A.** 1.66

**Q.** For TGTAACTGGC, which switch fluorescence ratio is on record?
**A.** 1.1
